Source: the supplement of paper PMC4967469
By IC50 is meant the dose at which the fit gives 50% viability; a limit (>, <) means that the fit lies beyond the doses tested. AUC is the area under the same curve over the 256-fold range up to the top dose, as a fraction: 1 means no effect, lower means more sensitive. For some assays here: Where the top dose is marked as inferred, it was calculated from the reported fits.

Tests used:
Test in all cases: Viability of human cancer cell lines after 72 h of drug (GDSC screen)
XMD14-99 = compound: COc1cc(N2CCN(C)CC2)ccc1Nc1nc(N)c(C(=O)c2c(Cl)cccc2Cl)s1 [XMD14-99]; details: top dose 10.24 µM; top dose inferred
Description: (§1)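 Human cancer cell lines in 384-well plates, medium with 10% serum, drug for 72 h over a 256-fold dose range (nine 2-fold or five 4-fold steps up to the top dose). Adherent lines were fixed and stained with the nucleic acid dye Syto60, suspension lines read with resazurin; signal relative to control wells, capped at 0 and 100%. One two-parameter sigmoid per drug and line, fitted in a mixed model over all curves with the slope shared within a line.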

Dasatinib = compound: Cc1nc(Nc2ncc(C(=O)Nc3c(C)cccc3Cl)s2)cc(N2CCN(CCO)CC2)n1 [Dasatinib]; details: top dose 1.28 µM
Description: as §1

A-443654 = compound: Cc1n[nH]c2ccc(-c3cncc(OC[C@@H](N)Cc4c[nH]c5ccccc45)c3)cc12 [A-443654]; details: top dose 1.024 µM; top dose inferred
Description: as §1

AT-7519 = compound: O=C(NC1CCNCC1)c1n[nH]cc1NC(=O)c1c(Cl)cccc1Cl [AT-7519]; details: top dose 10.24 µM; top dose inferred
Description: as §1

Sorafenib = compound: CNC(=O)c1cc(Oc2ccc(NC(=O)Nc3ccc(Cl)c(C(F)(F)F)c3)cc2)ccn1 [Sorafenib]; details: top dose 4 µM
Description: as §1

FH535 = compound: Cc1cc([N+](=O)[O-])ccc1NS(=O)(=O)c1cc(Cl)ccc1Cl [FH535]; details: top dose 32 µM; top dose inferred
Description: as §1

Cell Line | AUC (XMD14-99) | IC50 (XMD14-99) [µM] | AUC (Dasatinib) | IC50 (Dasatinib) [µM] | AUC (A-443654) | IC50 (A-443654) [µM] | AUC (AT-7519) | IC50 (AT-7519) [µM] | AUC (Sorafenib) | IC50 (Sorafenib) [µM] | AUC (FH535) | IC50 (FH535) [µM]
D-263MG (glioma, adherent) | 0.983 | > 10.2 | 0.72 | 0.389 | 0.819 | 0.749 | 0.845 | 9.81 | 0.921 | > 4 | – | –
LS-411N (large intestine, adherent) | 0.966 | > 10.2 | – | – | 0.52 | 0.0735 | 0.408 | 0.339 | 0.875 | > 4 | 0.623 | 4.7
JURL-MK1 (chronic myeloid leukaemia, suspension) | 0.948 | > 10.2 | – | – | – | – | 0.551 | 0.879 | 0.92 | > 4 | 0.752 | 10.6
WIL2-NS (lymphoid neoplasm, suspension) | 0.923 | > 10.2 | – | – | 0.676 | 0.178 | 0.215 | 0.115 | 0.611 | 0.474 | 0.706 | 6.69
NB12 (neuroblastoma, adherent) | 0.926 | > 10.2 | – | – | – | – | 0.746 | 4.23 | 0.939 | > 4 | 0.677 | 7.45
MOLT-13 (T-cell lymphoblastic leukaemia, suspension) | 0.81 | 4.6 | – | – | – | – | 0.44 | 0.447 | 0.975 | > 4 | – | –
KCL-22 (chronic myeloid leukaemia, suspension) | 0.921 | > 10.2 | – | – | 0.783 | 0.36 | 0.345 | 0.257 | 0.909 | > 4 | 0.826 | 15.3
KARPAS-231 (B-cell leukaemia, suspension) | 0.981 | > 10.2 | 0.195 | 0.0134 | 0.488 | 0.0597 | – | – | 0.888 | 2.73 | 0.676 | 5.43
D-392MG (glioma, adherent) | 0.965 | > 10.2 | – | – | – | – | 0.71 | 3.14 | 0.775 | 2.19 | 0.854 | > 32
NCI-H128 (small cell lung carcinoma, suspension) | – | – | 0.966 | > 1.28 | 0.929 | > 1.02 | – | – | 0.95 | > 4 | – | –
BL-41 (Burkitt lymphoma, suspension) | 0.956 | > 10.2 | – | – | 0.553 | 0.0862 | 0.192 | 0.107 | 0.9 | 2.97 | 0.7 | 6.23
Raji (Burkitt lymphoma, suspension) | 0.99 | > 10.2 | – | – | 0.761 | 0.34 | 0.45 | 0.471 | 0.96 | > 4 | 0.717 | 7.81
NCI-H226 (lung squamous cell carcinoma, adherent) | 0.985 | > 10.2 | – | – | 0.977 | > 1.02 | 0.758 | 3.71 | 0.984 | > 4 | 0.775 | 13.3
D-542MG (glioma, adherent) | 0.983 | > 10.2 | – | – | – | – | 0.976 | > 10.2 | 0.865 | > 4 | 0.342 | 0.655
RC-K8 (B-cell lymphoma, suspension) | 0.993 | > 10.2 | – | – | – | – | 0.743 | 2.83 | 0.92 | > 4 | 0.779 | 11.3
SUP-B15 (lymphoblastic leukaemia, suspension) | 0.934 | > 10.2 | – | – | 0.716 | 0.254 | 0.324 | 0.212 | 0.84 | 2.59 | 0.548 | 2.69
SK-N-FI (neuroblastoma, adherent) | 0.987 | > 10.2 | – | – | 0.824 | 0.605 | 0.953 | > 10.2 | 0.934 | > 4 | 0.825 | 19.1
CHP-126 (neuroblastoma, suspension) | 0.892 | > 10.2 | 0.987 | > 1.28 | 0.726 | 0.287 | – | – | 0.923 | > 4 | 0.901 | > 32
RL95-2 (endometrium, adherent) | 0.983 | > 10.2 | 0.456 | 0.0607 | 0.351 | 0.0249 | 0.823 | 5.97 | 0.943 | > 4 | – | –
SU-DHL-4 (B-cell lymphoma, suspension) | 0.982 | > 10.2 | – | – | 0.51 | 0.0676 | 0.296 | 0.205 | 0.9 | 2.54 | 0.583 | 3.18
NB1 (neuroblastoma, semi-adherent) | 0.901 | > 10.2 | 0.967 | > 1.28 | 0.581 | 0.109 | – | – | 0.855 | 3.73 | 0.724 | 9.3
ECC12 (stomach, suspension) | – | – | – | – | – | – | – | – | 0.945 | > 4 | – | –
MC116 (B-cell lymphoma, suspension) | 0.999 | > 10.2 | – | – | 0.659 | 0.154 | 0.327 | 0.245 | 0.975 | > 4 | 0.594 | 3.37
GA-10 (Burkitt lymphoma, suspension) | – | – | 0.039 | < 0.005 | 0.445 | 0.0465 | – | – | 0.807 | 1.68 | – | –
NB17 (neuroblastoma, adherent) | 0.847 | 9.25 | 0.743 | 0.448 | 0.57 | 0.102 | 0.95 | > 10.2 | 0.975 | > 4 | – | –
NCI-H1770 (non-small cell lung carcinoma, suspension) | 0.992 | > 10.2 | 0.986 | > 1.28 | 0.992 | > 1.02 | 0.947 | > 10.2 | – | – | 0.784 | 11.9

Cell Line | AUC (XMD14-99) | IC50 (XMD14-99) [µM] | AUC (Dasatinib) | IC50 (Dasatinib) [µM] | AUC (A-443654) | IC50 (A-443654) [µM] | AUC (AT-7519) | IC50 (AT-7519) [µM] | AUC (Sorafenib) | IC50 (Sorafenib) [µM] | AUC (FH535) | IC50 (FH535) [µM]
RL (B-cell lymphoma, suspension) | 0.976 | > 10.2 | 0.99 | > 1.28 | 0.99 | > 1.02 | 0.297 | 0.182 | – | – | 0.881 | 28.8
NALM-6 (B-cell leukaemia, suspension) | 0.86 | 6.44 | 0.645 | 0.187 | 0.613 | 0.124 | 0.237 | 0.131 | – | – | 0.692 | 6.22
RPMI-6666 (Hodgkin lymphoma, suspension) | 0.838 | 9.03 | 0.699 | 0.329 | 0.606 | 0.133 | 0.335 | 0.202 | – | – | 0.816 | 22.4
RXF393 (kidney, adherent) | 0.89 | > 10.2 | 0.352 | 0.0266 | 0.688 | 0.265 | 0.567 | 1.05 | – | – | 0.833 | > 32
CCRF-CEM (lymphoblastic leukaemia, suspension) | 0.95 | > 10.2 | 0.972 | > 1.28 | 0.643 | 0.148 | 0.367 | 0.294 | – | – | 0.69 | 6.14
SKM-1 (haematopoietic neoplasm, suspension) | – | – | 0.939 | > 1.28 | 0.951 | > 1.02 | – | – | 0.975 | > 4 | – | –
GDM-1 (acute myeloid leukaemia, suspension) | 0.92 | > 10.2 | 0.049 | < 0.005 | 0.612 | 0.128 | 0.412 | 0.37 | – | – | 0.683 | 6.34
TE-441-T (rhabdomyosarcoma, adherent) | 0.984 | > 10.2 | 0.989 | > 1.28 | 0.889 | > 1.02 | 0.336 | 0.228 | – | – | 0.682 | 6.32
HD-MY-Z (Hodgkin lymphoma, adherent) | 0.957 | > 10.2 | 0.94 | > 1.28 | 0.791 | 0.463 | 0.391 | 0.321 | – | – | 0.788 | 14.1
NCI-H1395 (lung adenocarcinoma, adherent) | 0.979 | > 10.2 | 0.939 | > 1.28 | 0.957 | > 1.02 | 0.623 | 1.56 | – | – | 0.961 | > 32
NCI-H345 (small cell lung carcinoma, suspension) | 0.99 | > 10.2 | 0.974 | > 1.28 | 0.805 | 0.547 | 0.962 | > 10.2 | – | – | 0.634 | 4.77
HCC2157 (breast, suspension) | 0.987 | > 10.2 | 0.98 | > 1.28 | 0.827 | 0.666 | 0.659 | 1.81 | – | – | 0.739 | 10.1
NAMALWA (Burkitt lymphoma, suspension) | 0.97 | > 10.2 | 0.735 | 0.327 | 0.581 | 0.103 | 0.315 | 0.214 | – | – | 0.689 | 6.14
JM1 (B-cell lymphoma, suspension) | 0.958 | > 10.2 | 0.883 | 1.03 | 0.627 | 0.136 | 0.355 | 0.272 | – | – | 0.734 | 8.26
NOS-1 (osteosarcoma, adherent) | 0.881 | > 10.2 | 0.246 | 0.0123 | 0.577 | 0.109 | 0.346 | 0.216 | – | – | 0.511 | 2.15
NMC-G1 (glioma, adherent) | 0.942 | > 10.2 | 0.548 | 0.112 | 0.837 | 0.919 | 0.774 | 4.98 | – | – | 0.67 | 6.67
BB30-HNC (head and neck, adherent) | 0.982 | > 10.2 | 0.468 | 0.0656 | 0.702 | 0.234 | 0.495 | 0.619 | – | – | 0.547 | 2.69
HA7-RCC (kidney, adherent) | 0.981 | > 10.2 | 0.405 | 0.0427 | 0.777 | 0.453 | 0.869 | > 10.2 | – | – | 0.726 | 9.49
BC-1 (B-cell lymphoma, suspension) | 0.913 | > 10.2 | 0.985 | > 1.28 | 0.843 | 0.575 | 0.264 | 0.153 | – | – | 0.592 | 3.44
SK-LMS-1 (soft tissue, adherent) | 0.978 | > 10.2 | 0.922 | > 1.28 | 0.752 | 0.326 | 0.615 | 1.3 | – | – | 0.554 | 2.78
H-EMC-SS (chondrosarcoma, adherent) | 0.97 | > 10.2 | 0.948 | > 1.28 | 0.715 | 0.315 | 0.802 | 6.85 | – | – | 0.722 | 10.5
DND-41 (T-cell leukaemia, suspension) | 0.874 | 7.98 | 0.898 | > 1.28 | 0.749 | 0.298 | 0.215 | 0.107 | – | – | 0.733 | 8.36
D-247MG (glioma, adherent) | 0.98 | > 10.2 | 0.804 | 0.945 | 0.863 | > 1.02 | 0.961 | > 10.2 | 0.782 | 2.35 | – | –
OCI-AML3 (acute myeloid leukaemia, suspension) | 0.964 | > 10.2 | 0.984 | > 1.28 | 0.857 | 0.649 | 0.391 | 0.337 | – | – | 0.755 | 9.45
IST-MEL1 (melanoma, adherent) | 0.978 | > 10.2 | – | – | 0.731 | 0.335 | 0.7 | 2.64 | 0.89 | > 4 | 0.679 | 7.04
